Data reported in the supplement of paper PMC11417369.
± gives the standard deviation of the averaged measurements. This is one part of the list.

What follows are sequences tested on PfAP2-LT AP2 domain (GST-tagged) (assay: gcPBM binding intensity (ln(normalized median fluorescence intensity)); higher = stronger DNA binding).
In short: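 Probes on an Agilent 4 × 180k array were primer-extended, double-stranded and 36 bp long, taken from intergenic genomic regions, with negative controls added. GST-tagged P. falciparum DNA-binding domains from E. coli, about 25 μg on average, were applied to the array for 1 h in 1× PBS containing 1% milk, 0.2 mg/ml BSA, 0.5% salmon testes DNA and 0.03% Triton X-100. Binding intensity, obtained after Alexa488 anti-GST antibody detection and a 488 nm scan, is the highest Masliner-normalised natural-log median intensity across replicate spots of either probe orientation.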

Sequence	gcPBM binding intensity (ln)
TTGACACGTATATGCACACACCCGTAAGTGTCCATT [CACACA_site2764]	9.47 ± 0.31
ATATTTTATTATTGTTGTACTTTTTTTTGATTGTTT [XGTACX_site4090]	8.98 ± 0.38
TTTTTTATGAACACGTCACACATCATTAAAATGTTT [CACACA_site5934]	8.79 ± 0.52
TCACACATATATTCATGTACATATTAATATTTCCAT [XGTACX_site5387]	8.92 ± 0.34
TTTAATATTTTTCAATGTAGAAAGTTTGTCTGTTAT [CACACA_negctrl_site973]	8.51 ± 0.5
AGTTATAAACATATGTGTACTTATAAAAACATATAG [XGTACX_site3268]	8.9 ± 0.41
TTAAATATAAAAAGTAGTACATTTATATTTACCATA [XGTACX_site2962]	8.46 ± 0.36
TCAAATTATATGAGTGGTACACATGTAATATTTTTA [XGTACX_site6518]	8.71 ± 0.44
AAAAAACGACCTTACGCACACATTATTCTAGTCTAT [CACACA_site2349]	9.24 ± 0.45
AAAAAAATATATATTACACACATATATACATATATA [CACACA_site3125]	8.88 ± 0.4
ATATATATATATATATGTACTTATTAAGATTAAAAA [XGTACX_site61]	9.2 ± 0.11
TTACATTTTTTATGTTTTTTTATATTGCAAAAAAAT [CACACA_negctrl_site1050]	8.4 ± 0.42
ATATTTTGTATAATCACACACACTATTATTAAATAG [CACACA_site2612]	9.13 ± 0.28
TACATAAAAATATCACGTACATATAATCATATACTA [XGTACX_site3505]	8.66 ± 0.37
ATATTTCATCTAGCTACACACATATAACAAATTACT [CACACA_site7843]	9.09 ± 0.4
TTCTTTTTCCAATTTGCACACCACAAAATTATATAT [CACACA_site2909]	9.01 ± 0.49
ACCTTTGATATATACACACACATAAAAAAAATATAT [CACACA_site6952]	9.37 ± 0.31
AAAAAAAAAAAAAAAACACACATACACCCCCACCCA [CACACA_site9117]	9.89 ± 0.18
ATTAATAATATTCCTTGTACATGATTTTTCTAAATA [XGTACX_site7099]	8.59 ± 0.41
TATAAATATAAATACACACACACATCAATACAGATA [CACACA_site5850]	9.86 ± 0.014
TGCACAGACGGACACACACACAACTAAAAAATAATG [CACACA_site5424]	9.69 ± 0.61
TGTGTTAATAGAAAAAGTACATATACATATATATAT [XGTACX_site4951]	8.75 ± 0.44
TCTTTTGAACAAATTTGTACGTATATAAAAATATTT [XGTACX_site6547]	8.43 ± 0.45

Sequence	gcPBM binding intensity (ln)
AATGAATTAATAGCTACACACGGTAACATAATAACT [CACACA_site851]	9.07 ± 0.4
TATAATAATGCCTTTACATGCAATAATAAAGAAATA [TGCATGCA_site631]	8.62 ± 0.36
CGCATACACCAACACACACACACATATATATATATA [CACACA_site635]	9.96 ± 0.48
TATAAATACTTATATGTACACACATATAGATATATA [CACACA_site8819]	8.82 ± 0.33
TAGATCTTATTTACAAGTACATATATACGATTCATT [XGTACX_site7578]	8.72 ± 0.48
AGAAGTCTGTAATGATGTACTGGAAAAATATAAATA [XGTACX_site8148]	8.64 ± 0.48
ATCTAATATATATTCTGTACGTAATTAAAACCACAA [XGTACX_site3152]	8.65 ± 0.31
ATGTTGTCAAAAAAATGTACTTACATAATATTTTCC [XGTACX_site1732]	8.55 ± 0.42
ATATATATATATATTTGTACATATATATAATTTTTC [XGTACX_site7460]	9.08 ± 0.52
TATAATTGTCTTCACACACACATATATATATATATA [CACACA_site2743]	9.685 ± 0.064
AAAATAAAAAAAAAAGGTACACAAAAAGATGGACTG [XGTACX_site2650]	8.91 ± 0.57
TTTTTTTTTTAAAAAACACACACCTAAACAAGATAT [CACACA_site875]	8.8 ± 0.24
TTAATTGACATAAAAAGTACTCATATAGATATGCAC [XGTACX_site6391]	8.62 ± 0.43
AAATGTTAATAAAGGTGTACACAAAATAAAAAAAAT [XGTACX_site463]	9.34 ± 0.58
AAAAAGAACAGAAACACACAAATAAAATAAAATTGT [CACACA_site6921]	9.21 ± 0.46
TAATTTTATTTTATATGTACGCAATACAAATATATA [XGTACX_site8461]	8.44 ± 0.36
ATAAAAATAAAAAGTGTGCACACAAAAATATATATA [GTGCAC_site9931]	9.62 ± 0.36
AATATATATATTTAAGTGCATAATATTGTAATATTA	8.72 ± 0.44
TTACCAAAAAAATGTAGTACAATATAATATTATTTA [XGTACX_site5750]	8.52 ± 0.38
ATATATTATGAAGACTGTACATTTACATGAAAAAAA [XGTACX_site7203]	8.68 ± 0.52
CACCCCCACAGACACACACACACACCCATATATATA [CACACA_site364]	10.45 ± 0.042
AAGATTCATTGGTTCTGTACAAAATAAACACTATAA [XGTACX_site834]	8.69 ± 0.49
